Experimental data as given in the supplement of paper PMC8728848.
This is one part of the list.

Key:
Assay in all cases: glycan array binding signal (z-score within array); higher = stronger binding
Settings in all cases: glycan notation: IUPAC condensed, linker removed
[1] = target: Gal(b1-4)GlcNAc(b1-3)Gal(b1-4)GlcNAc(b1-2)[Gal(b1-4)GlcNAc(b1-3)Gal(b1-4)GlcNAc(b1-6)]Man(a1-6)[Gal(b1-4)GlcNAc(b1-3)Gal(b1-4)GlcNAc(b1-2)Man(a1-3)]Man(b1-4)GlcNAc(b1-4)GlcNAc
Procedure, shortened: (§1)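 Glycan array data came from 3228 arrays in the Consortium for Functional Glycomics database, and only arrays with an available protein sequence were kept. Glycan names were put into IUPAC-condensed notation, and columns mapping to the same glycan were averaged. The binding signal is a within-array Z-score, averaged across arrays of one protein sequence run at different concentrations or buffers and across linkers. A negative Z-score can be read as non-binding.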

[2] = target: Gal(b1-4)GlcNAc(b1-3)Gal(b1-4)GlcNAc(b1-2)[Gal(b1-4)GlcNAc(b1-3)Gal(b1-4)GlcNAc(b1-6)]Man(a1-6)[Gal(b1-4)GlcNAc(b1-3)Gal(b1-4)GlcNAc(b1-2)Man(a1-3)]Man(b1-4)GlcNAc(b1-4)[Fuc(a1-6)]GlcNAc
Procedure, shortened: as §1

[3] = target: Gal(b1-4)GlcNAc(b1-3)Gal(b1-4)GlcNAc(b1-3)Gal(b1-4)GlcNAc
Procedure, shortened: as §1

[4] = target: Gal(b1-4)GlcNAc(b1-3)Gal(b1-4)GlcNAc(b1-3)Gal(b1-4)GlcNAc(b1-2)Man(a1-3)[Gal(b1-4)GlcNAc(b1-3)Gal(b1-4)GlcNAc(b1-3)Gal(b1-4)GlcNAc(b1-2)Man(a1-6)]Man(b1-4)GlcNAc(b1-4)GlcNAc
Procedure, shortened: as §1

[5] = target: Gal(b1-4)GlcNAc(b1-3)Gal(b1-4)GlcNAc(b1-3)Gal(b1-4)GlcNAc(b1-2)Man(a1-3)[Gal(b1-4)GlcNAc(b1-3)Gal(b1-4)GlcNAc(b1-3)Gal(b1-4)GlcNAc(b1-2)Man(a1-6)]Man(b1-4)GlcNAc(b1-4)[Fuc(a1-6)]GlcNAc
Procedure, shortened: as §1

[6] = target: Gal(b1-4)GlcNAc(b1-3)Gal(b1-4)GlcNAc(b1-3)Gal(b1-4)GlcNAc(b1-2)[Gal(b1-4)GlcNAc(b1-3)Gal(b1-4)GlcNAc(b1-3)Gal(b1-4)GlcNAc(b1-6)]Man(a1-6)[Gal(b1-4)GlcNAc(b1-3)Gal(b1-4)GlcNAc(b1-3)Gal(b1-4)GlcNAc(b1-2)Man(a1-3)]Man(b1-4)GlcNAc(b1-4)[Fuc(a1-6)]GlcNAc
Procedure, shortened: as §1

[7] = target: Gal(b1-4)GlcNAc(b1-3)Gal(b1-4)GlcNAc(b1-3)Gal(b1-4)GlcNAc(b1-3)Gal(b1-4)GlcNAc(b1-2)Man(a1-3)[Gal(b1-4)GlcNAc(b1-3)Gal(b1-4)GlcNAc(b1-3)Gal(b1-4)GlcNAc(b1-3)Gal(b1-4)GlcNAc(b1-2)Man(a1-6)]Man(b1-4)GlcNAc(b1-4)GlcNAc
Procedure, shortened: as §1

[8] = target: Gal(b1-4)GlcNAc(b1-3)Gal(b1-4)GlcNAc(b1-3)Gal(b1-4)GlcNAc(b1-3)Gal(b1-4)GlcNAc(b1-2)Man(a1-3)[Gal(b1-4)GlcNAc(b1-3)Gal(b1-4)GlcNAc(b1-3)Gal(b1-4)GlcNAc(b1-3)Gal(b1-4)GlcNAc(b1-2)Man(a1-6)]Man(b1-4)GlcNAc(b1-4)[Fuc(a1-6)]GlcNAc
Procedure, shortened: as §1

[9] = target: Gal(b1-4)GlcNAc(b1-3)Gal(b1-4)GlcNAc(b1-3)Gal(b1-4)GlcNAc(b1-3)Gal(b1-4)GlcNAc(b1-2)[Gal(b1-4)GlcNAc(b1-3)Gal(b1-4)GlcNAc(b1-3)Gal(b1-4)GlcNAc(b1-3)Gal(b1-4)GlcNAc(b1-6)]Man(a1-6)[Gal(b1-4)GlcNAc(b1-3)Gal(b1-4)GlcNAc(b1-3)Gal(b1-4)GlcNAc(b1-3)Gal(b1-4)GlcNAc(b1-2)Man(a1-3)]Man(b1-4)GlcNAc(b1-4)[Fuc(a1-6)]GlcNAc
Procedure, shortened: as §1

[10] = target: Gal(b1-4)GlcNAc(b1-3)Gal(b1-4)GlcNAc(b1-3)Gal(b1-4)GlcNAc(b1-3)Gal(b1-4)GlcNAc(b1-3)Gal(b1-4)GlcNAc(b1-2)Man(a1-3)[Gal(b1-4)GlcNAc(b1-3)Gal(b1-4)GlcNAc(b1-3)Gal(b1-4)GlcNAc(b1-3)Gal(b1-4)GlcNAc(b1-3)Gal(b1-4)GlcNAc(b1-2)Man(a1-6)]Man(b1-4)GlcNAc(b1-4)GlcNAc
Procedure, shortened: as §1

[11] = target: Gal(b1-4)GlcNAc(b1-3)Gal(b1-4)GlcNAc(b1-3)Gal(b1-4)GlcNAc(b1-3)Gal(b1-4)GlcNAc(b1-3)Gal(b1-4)GlcNAc(b1-2)Man(a1-3)[Gal(b1-4)GlcNAc(b1-3)Gal(b1-4)GlcNAc(b1-3)Gal(b1-4)GlcNAc(b1-3)Gal(b1-4)GlcNAc(b1-3)Gal(b1-4)GlcNAc(b1-2)Man(a1-6)]Man(b1-4)GlcNAc(b1-4)[Fuc(a1-6)]GlcNAc
Procedure, shortened: as §1

[12] = target: Gal(b1-4)GlcNAc(b1-3)Gal(b1-4)GlcNAc(b1-3)Gal(b1-4)GlcNAc(b1-3)Gal(b1-4)GlcNAc(b1-3)Gal(b1-4)GlcNAc(b1-2)[Gal(b1-4)GlcNAc(b1-3)Gal(b1-4)GlcNAc(b1-3)Gal(b1-4)GlcNAc(b1-3)Gal(b1-4)GlcNAc(b1-3)Gal(b1-4)GlcNAc(b1-6)]Man(a1-6)[Gal(b1-4)GlcNAc(b1-3)Gal(b1-4)GlcNAc(b1-3)Gal(b1-4)GlcNAc(b1-3)Gal(b1-4)GlcNAc(b1-3)Gal(b1-4)GlcNAc(b1-2)Man(a1-3)]Man(b1-4)GlcNAc(b1-4)[Fuc(a1-6)]GlcNAc
Procedure, shortened: as §1

[13] = target: Gal(b1-4)GlcNAc(b1-3)Gal(b1-4)GlcNAc(b1-3)Gal(b1-4)GlcNAc(b1-3)Gal(b1-4)GlcNAc(b1-3)Gal(b1-4)GlcNAc(b1-3)Gal(b1-4)GlcNAc(b1-2)Man(a1-3)[Gal(b1-4)GlcNAc(b1-3)Gal(b1-4)GlcNAc(b1-3)Gal(b1-4)GlcNAc(b1-3)Gal(b1-4)GlcNAc(b1-3)Gal(b1-4)GlcNAc(b1-3)Gal(b1-4)GlcNAc(b1-2)Man(a1-6)]Man(b1-4)GlcNAc(b1-4)GlcNAc
Procedure, shortened: as §1

[14] = target: Gal(b1-4)GlcNAc(b1-3)Gal(b1-4)GlcNAc(b1-3)GalNAc
Procedure, shortened: as §1

[15] = target: Gal(b1-4)GlcNAc(b1-3)Gal(b1-4)GlcNAc(b1-3)[Gal(b1-4)GlcNAc(b1-3)Gal(b1-4)GlcNAc(b1-6)]GalNAc
Procedure, shortened: as §1

[16] = target: Gal(b1-4)GlcNAc(b1-3)Gal(b1-4)GlcNAc(b1-6)[Gal(b1-3)]GalNAc
Procedure, shortened: as §1

[17] = target: Gal(b1-4)GlcNAc(b1-3)Gal(b1-4)[Fuc(a1-3)]GlcNAc(b1-3)Gal(b1-4)[Fuc(a1-3)]GlcNAc
Procedure, shortened: as §1

[18] = target: Gal(b1-4)GlcNAc(b1-3)GalNAc
Procedure, shortened: as §1

[19] = target: Gal(b1-4)GlcNAc(b1-3)[Fuc(a1-3)GlcNAc(b1-6)]Gal(b1-4)Glc
Procedure, shortened: as §1

[20] = target: Gal(b1-4)GlcNAc(b1-3)[Gal(b1-4)GlcNAc(b1-6)]Gal(b1-4)GlcNAc
Procedure, shortened: as §1

[21] = target: Gal(b1-4)GlcNAc(b1-3)[GlcNAc(b1-6)]Gal(b1-4)GlcNAc
Procedure, shortened: as §1

[22] = target: Gal(b1-4)GlcNAc(b1-6)Gal(b1-4)GlcNAc
Procedure, shortened: as §1

[23] = target: Gal(b1-4)GlcNAc(b1-6)GalNAc
Procedure, shortened: as §1

[24] = target: Gal(b1-4)GlcNAc(b1-6)[Gal(b1-3)]GalNAc
Procedure, shortened: as §1

[25] = target: Gal(b1-4)GlcNAc(b1-6)[Gal(b1-4)GlcNAc(b1-3)]GalNAc
Procedure, shortened: as §1

Gal(b1-4)GlcNAc6P = target: Gal(b1-4)GlcNAc6P
Procedure, shortened: as §1

Gal(b1-6)Gal = target: Gal(b1-6)Gal
Procedure, shortened: as §1

Gal3S(b1-3)GalNAc = target: Gal3S(b1-3)GalNAc
Procedure, shortened: as §1

Gal3S(b1-3)GlcNAc = target: Gal3S(b1-3)GlcNAc
Procedure, shortened: as §1

[26] = target: Gal3S(b1-3)[Fuc(a1-4)]GlcNAc
Procedure, shortened: as §1

Gal3S(b1-4)Glc = target: Gal3S(b1-4)Glc
Procedure, shortened: as §1

Gal3S(b1-4)Glc6S = target: Gal3S(b1-4)Glc6S
Procedure, shortened: as §1

Gal3S(b1-4)GlcNAc = target: Gal3S(b1-4)GlcNAc
Procedure, shortened: as §1

[27] = target: Gal3S(b1-4)[Fuc(a1-3)]Glc6S
Procedure, shortened: as §1

[28] = target: Gal3S(b1-4)[Fuc(a1-3)]GlcNAc
Procedure, shortened: as §1

[29] = target: Gal3S(b1-4)[Fuc(a1-3)]GlcNAc6S
Procedure, shortened: as §1

Gal3S4S(b1-4)GlcNAc = target: Gal3S4S(b1-4)GlcNAc
Procedure, shortened: as §1

Gal3S6S(b1-4)GlcNAc = target: Gal3S6S(b1-4)GlcNAc
Procedure, shortened: as §1

Gal3S6S(b1-4)GlcNAc6S = target: Gal3S6S(b1-4)GlcNAc6S
Procedure, shortened: as §1

Gal4S(b1-4)GlcNAc = target: Gal4S(b1-4)GlcNAc
Procedure, shortened: as §1

Gal4S6S(b1-4)GlcNAc = target: Gal4S6S(b1-4)GlcNAc
Procedure, shortened: as §1

Gal6P(b1-4)GlcNAc = target: Gal6P(b1-4)GlcNAc
Procedure, shortened: as §1

Gal6S(b1-3)GlcNAc = target: Gal6S(b1-3)GlcNAc
Procedure, shortened: as §1

Gal6S(b1-3)GlcNAc6S = target: Gal6S(b1-3)GlcNAc6S
Procedure, shortened: as §1

Gal6S(b1-4)Glc = target: Gal6S(b1-4)Glc
Procedure, shortened: as §1

B1: Cohesin-hDCIR (Homo sapiens) (protein)
chain: LDDLDAVRIKVDTVNAKPGDTVRIPVRFSGIPSKGIANCDFVYSYDPNVLEIIEIEPGDIIVDPNPDKSFDTAVYPDRKIIVFLFAEDSGTGAYAITKDGVFATIVAKVKEGAPNGLSVIKFVEVGGFANNDLVEQKTQFFDGGANVGDTTEPATPTTPVTTPTTTDDLDAASQKYSQLLEKKTTKELVHTTLECVKKNMPVEETAWSCCPKNWKSFSSNCYFISTESASWQDSEKDCARMEAHLLVINTQEEQDFIFQNLQEESAYFVGLSDPEGQRHWQWVDQTPYNESSTFWHPREPSDPNERCVVLNFRKSPKRWGWNDVNCLGPQRSVCEMMKIHLHHHHHH
- glycan array binding signal (z-score) [1]: 1.49
- glycan array binding signal (z-score) [2]: -0.329
- glycan array binding signal (z-score) [3]: -0.668
- glycan array binding signal (z-score) [4]: 1.23
- glycan array binding signal (z-score) [5]: 1.12
- glycan array binding signal (z-score) [6]: -0.052
- glycan array binding signal (z-score) [7]: -0.236
- glycan array binding signal (z-score) [8]: 2.82
- glycan array binding signal (z-score) [9]: 0.306
- glycan array binding signal (z-score) [10]: 2.38
- glycan array binding signal (z-score) [11]: 2.48
- glycan array binding signal (z-score) [12]: 0.168
- glycan array binding signal (z-score) [13]: -0.417
- glycan array binding signal (z-score) [14]: -0.503
- glycan array binding signal (z-score) [15]: -0.127
- glycan array binding signal (z-score) [16]: 0.379
- glycan array binding signal (z-score) [17]: -0.584
- glycan array binding signal (z-score) [18]: -0.558
- glycan array binding signal (z-score) [19]: -0.615
- glycan array binding signal (z-score) [20]: -0.335
- glycan array binding signal (z-score) [21]: 0.379
- glycan array binding signal (z-score) [22]: -0.313
- glycan array binding signal (z-score) [23]: 2.18
- glycan array binding signal (z-score) [24]: -0.281
- glycan array binding signal (z-score) [25]: -0.595
- glycan array binding signal (z-score) (Gal(b1-4)GlcNAc6P): -0.309
- glycan array binding signal (z-score) (Gal(b1-6)Gal): -0.352
- glycan array binding signal (z-score) (Gal3S(b1-3)GalNAc): 0.31
- glycan array binding signal (z-score) (Gal3S(b1-3)GlcNAc): 0.117
- glycan array binding signal (z-score) [26]: 0.319
- glycan array binding signal (z-score) (Gal3S(b1-4)Glc): 1.84
- glycan array binding signal (z-score) (Gal3S(b1-4)Glc6S): 0.902
- glycan array binding signal (z-score) (Gal3S(b1-4)GlcNAc): 0.834
- glycan array binding signal (z-score) [27]: -0.343
- glycan array binding signal (z-score) [28]: -0.275
- glycan array binding signal (z-score) [29]: 3.25
- glycan array binding signal (z-score) (Gal3S4S(b1-4)GlcNAc): -0.051
- glycan array binding signal (z-score) (Gal3S6S(b1-4)GlcNAc): 0.334
- glycan array binding signal (z-score) (Gal3S6S(b1-4)GlcNAc6S): 0.229
- glycan array binding signal (z-score) (Gal4S(b1-4)GlcNAc): -0.653
- glycan array binding signal (z-score) (Gal4S6S(b1-4)GlcNAc): -0.175
- glycan array binding signal (z-score) (Gal6P(b1-4)GlcNAc): -0.376
- glycan array binding signal (z-score) (Gal6S(b1-3)GlcNAc): -0.662
- glycan array binding signal (z-score) (Gal6S(b1-3)GlcNAc6S): 1.68
- glycan array binding signal (z-score) (Gal6S(b1-4)Glc): -0.253
